Source: PubChem BioAssay (NCI)
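Results reflect a 48-hour exposure of cells in 96-well plates to compound at five concentrations. Abbreviation: GI50, concentration required for 50% inhibition of growth. Definition used: TGI = concentration required for complete inhibition of growth.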

test system: NCI-H322M lung; assay: inhibition of tumour cell growth, NCI panel, 48 h

Row | Compound | TGI | GI50
1 | Nc1c(C(=O)c2ccccc2)nnc2ccccc12 | > 100 µM | –
2 | Cn1cc(NC(=O)c2cc(NC(=O)CCCCCCCC(=O)Nc3cc(C(=O)Nc4cc(C(=O)NCCC(=N)N)n(C)c4)n(C)c3)cn2C)cc1C(=O)NCCC(=N)N | 86.1 µM | –
3 | Cc1cc(/N=C/c2ccc(Cl)cc2)n(-c2ccccc2)n1 | > 100 µM | –
4 | O/N=C1\CSc2ccccc2C1 | > 100 µM | –
5 | COC(=O)c1ccc2c(c1)C(=O)c1c-2n(CCCCl)c(=O)c2cc(OC)c(OC)cc12 | > 100 µM | > 100 µM
6 | C=CC[PH+](c1ccccc1)c1ccccc1.C=CC[PH+](c1ccccc1)c1ccccc1.[Pt+2].[S-]c1ncccn1.[S-]c1ncccn1 | > 100 µM | > 100 µM
7 | CC1(C)OC2OC(COC(=O)C(c3ccccc3)c3ccccc3)C3OC(C)(C)OC3C2O1 (stereo unspecified) | > 100 µM | –
8 | Cc1cc(NS(=O)(=O)c2ccc(NC(=O)c3ccc4nc5ccccc5c(Nc5ccc(S(=O)(=O)Nc6cc(C)on6)cc5)c4c3)cc2)no1 | > 50 µM | –
9 | O=C1c2ccoc2C(=O)c2oc(=O)ccc21 | > 54.1 µM | –
10 | O=C1NC2=NN=C(c3ccc(Br)cc3)CN2NC12c1ccccc1-c1ccccc12 | > 100 µM | –
11 | CCc1ccc(C2=NN(c3ccc(S(C)(=O)=O)cc3)C(=O)CC2)cc1 | > 100 µM | 3.05 µM
12 | Cn1c(=O)n2n(c1=O)C(S(=O)c1ccccc1)C2 (stereo unspecified) | > 100 µM | –
13 | CCOC(=O)[C@H]1Nc2c(cccc2[N+](=O)[O-])C2c3ccccc3CC21 (stereo partly specified) | > 100 µM | –
14 | Clc1cccc(C2SCc3nc4ccccc4n32)c1 (stereo unspecified) | > 100 µM | –
15 | O=C(/C=C\c1ccc(/C=C/C(=O)Nc2cccc(C3=NCCCN3)c2)cc1)Nc1cccc(C2=NCCCN2)c1 | > 100 µM | –
16 | Cc1cc(OC(=O)c2c(C)cc(OC(=O)c3c(C)cc(O)cc3O)cc2O)cc(O)c1C(=O)O | > 100 µM | –
17 | CCCC(=O)OC1C(C2COC(C)(C)O2)OC2OC(C)(C)OC21 (stereo unspecified) | > 100 µM | –
18 | O=C1c2ccccc2/C=C\C(c2ccccc2)=N/N1c1ccccc1Cl | > 100 µM | –
19 | CCOP(=O)(/C=C\n1ccc(=O)[nH]c1=O)OCC | > 100 µM | –
20 | CC1=C2CC(C)(C)CC(=O)C2(C)CCC1=O (stereo unspecified) | > 100 µM | –

Row | Compound | TGI | GI50
21 | O=C1CC(=O)NC(=NN2C(=O)/C(=C/c3ccc(Cl)cc3)N=C2c2ccccc2)N1 | 61.7 µM | –
22 | Nc1c(C(=O)Nc2ccccn2)sc2nc3c(cc12)CCCCCC3 | 16.6 µM | 2.58 µM
23 | O=C(CCC(=O)C1Cc2ccccc2C1=O)Nc1cccc(C(F)(F)F)c1 (stereo unspecified) | > 100 µM | –
24 | COc1cccc(/C=N/[N-]C(N)=O)c1[O-].[OH3+].[Pd+2] | > 100 µM | –
25 | c1csc(C(NC2=NCCO2)C2CC2)c1 (stereo unspecified) | > 100 µM | –
26 | O=C(Nc1ccc(Cl)c(Cl)c1)C1C(=O)N(c2ccc(Cl)c(Cl)c2)C(=O)/C1=N\O (stereo unspecified) | > 100 µM | –
27 | COC(=O)C1(Cc2ccccc2)Cc2c(C)ccc(C)c2C1=O (stereo unspecified) | > 100 µM | –
28 | CC(=O)Oc1ccc2cc(Oc3ccccc3)c(=O)oc2c1 | > 100 µM | –
29 | Nc1ncnc2sc(Nc3ccccc3)nc12 | > 100 µM | –
30 | CC(C)C/C(=N\NC(=O)c1ccncc1)c1cc(Cl)ccc1O | 65.3 µM | 0.205 µM
31 | CC1CCN(c2cc(-c3cc4ccccc4o3)oc(=O)c2C#N)CC1 | > 100 µM | –
32 | Cn1cnnc1SC(F)(F)c1nc2ccccc2o1 | > 100 µM | –
33 | Cc1cn2c(/C=C3/C(=O)Nc4ccc(C(=O)O)cc43)c(C)nc2s1 | > 100 µM | > 100 µM
34 | Nc1nc(-c2ccccc2)cc(-c2cc(Cl)ccc2O)n1 | > 100 µM | –
35 | O=S(=O)(c1ccc2ccccc2c1)N1CCN(S(=O)(=O)c2ccc3ccccc3c2)CC1 | > 100 µM | –
36 | Cn1c(SCc2c[nH]c3ccccc23)nnc1-c1ccc(Cl)cc1Cl | 94 µM | –
37 | COc1cccc(-c2[nH]c3cc4c(cc3c(=O)c2C(=O)O)OCO4)c1 | > 100 µM | –
38 | CCCCC1Cc2cc(OC)ccc2-c2n1c1cc(OC)ccc1[n+]2C (stereo unspecified) (tested in a mixture with another compound) | 57.8 µM | –
39 | COc1ccc2c(C(=O)c3c(C)n(CCN4CCOCC4)c4ccccc34)cccc2c1 | > 100 µM | –
40 | O=CC(O)C(O)C(OC1OC(CO)C(O)C(O)C1O)C(O)CO (stereo unspecified) (tested in a mixture with another compound) | > 100 µM | –
